According to the supplement of paper PMC8183993:
Where a name gives a salt, the structure may show the parent alone. In all, about 3,200 compounds were measured (“nuclei count (viability) relative to DMSO”: median about 99, lowest 2% from about 16 on). The list shows a part of the results.

The molecules below were run on U2OS (assay: nuclei count (viability) relative to DMSO (% of DMSO); higher = more viable cells). Settings: 10 µM; 24 h.
Procedure: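 Primary image-based screen in U2OS cells: compounds at 10 uM for 24 h, then a 1 h o-propargyl-puromycin (OPP) pulse, click labelling, and high-throughput microscopy. Mean cytoplasmic OPP intensity and nuclei count were normalised to DMSO wells within each plate (DMSO = 100) and averaged over triplicate plates.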

Row | SMILES | nuclei count
1 | CN(C)CCN(Cc1cccs1)c1ccccn1 [Methapyrilene hydrochloride] | 115
2 | CC(C)n1nc(-c2cc3cc(O)ccc3[nH]2)c2c(N)ncnc21 [Torkinib (PP242)] | 77.5
3 | NC(=O)N1c2ccccc2C=Cc2ccccc21 [Carbamazepine] | 112
4 | N#Cc1ccccc1OCC(O)CNCCNC(=O)Nc1ccccc1 (stereo not given) | 95.5
5 | CNc1nc(Nc2cnn([C@H]3CCN(C4COC4)C[C@@H]3F)c2Cl)ncc1C(F)(F)F | 99.9
6 | Clc1ccc(C(Cn2ccnc2)OCc2c(Cl)cccc2Cl)c(Cl)c1 (stereo not given) [Isoconazole] | 104
7 | CC(=O)c1ccc(S(=O)(=O)NC(=O)NC2CCCCC2)cc1 [Acetohexamide] | 104
8 | CCSC(=N)N [EIT hydrobromide] | 91.5
9 | CCCCC[C@H](O)/C=C/[C@@H]1[C@@H](C/C=C\CCCC(=O)O)[C@@H](O)C[C@H]1O [Dinoprost trometamol] | 101
10 | COc1ccc(CN(CCN(C)C)c2ccccn2)cc1 [Mepyramine maleate] | 104
11 | COc1ccc(CN(CCN(C)C)c2ccccn2)cc1 [Pyrilamine maleate] | 102
12 | CCCNC(C)C(=O)Nc1ccccc1C (stereo not given) [Prilocaine hydrochloride] | 102
13 | CC(COc1ccccc1)N(CCCl)Cc1ccccc1 (stereo not given) [Phenoxybenzamine hydrochloride] | 106
14 | Nc1ncn([C@@H]2O[C@H](CO)[C@@H](O)[C@H]2O)c(=O)n1 [Azacitidine (Vidaza)] | 68.5
15 | O=C(Nc1ccc(OC(F)(F)F)cc1)c1sccc1NCc1ccnc2ccccc12 | 74.7
16 | COc1cc(/C=C/C(=O)N2CCN(CC(=O)N3CCCC3)CC2)cc(OC)c1OC [Cinepazide maleate] | 101
17 | CNC(=O)c1cc2c(cn1)[nH]c1ccccc12 | 101
18 | Cc1cc(=O)oc2cc(O)ccc12 [Hymecromone] | 95.8
19 | CCOC(=O)c1ccc(OC(=O)CCCCCNC(=N)N)cc1 [Gabexate mesilate] | 106
20 | CCOC(=O)c1ccc(OC(=O)CCCCCNC(=N)N)cc1 [Gabexate mesylate] | 96.3
21 | CSc1nc(NC2CCCC2)c([N+](=O)[O-])c(NC2CCCC2)n1 | 101
22 | CCCN[C@H]1CCc2nc(N)sc2C1 [Pramipexole] | 111
23 | CC(C)(C)Cn1c(N)nc2ccc(-c3[nH]c(C(C)(C)C)nc3-c3ccc(F)cc3)nc21 | 78.7
24 | c1ccc(C2CN3CCSC3=N2)cc1 (stereo not given) [Tetramisole hydrochloride] | 101
25 | c1ccc(C2CN3CCSC3=N2)cc1 (stereo not given) [Tetramisole HCl] | 99.7
